Results taken from ChEMBL document CHEMBL4888484, “Replenishing the malaria drug discovery pipeline: Screening and hit evaluation of the MMV Hit Generation Library 1 (HGL1) against asexual blood stage Plasmodium falciparum ,using a nano luciferase reporter read-out” (2022).
The campaign covered roughly 150,000 compounds. About 540 (0.36%) showed an effect of 50% or more. This is one part of the list.

These compounds were tested on Plasmodium falciparum (assay: Primary screen in NF54 nanoGlo assay, in single point, at 2uM, 72h; a lower Z score goes with more inhibition). Conditions: timepoint 72 hour.
Format: functional, Erythrocyte

Q: With CCN1CCC[C@@H]1CNS(=O)(=O)c1c(C)c(C)cc2c(C)c(C(=O)N3CCCCC3)oc12 as the compound, how does the “% Inhibition” value read?
A: Its value is -4%.

Q: And the Z score?
A: The Z score was 0.84.

Q: With O=C(NC1CCCCC1)N1Cc2nc[nH]c2C[C@H]1c1nc(-c2ccc(F)c(Cl)c2)no1 as the compound, how does the “% Inhibition” value read?
A: Its value is -3%.

Q: And the Z score?
A: Its Z score is 0.5.

Q: Which “% Inhibition” value does the source give for CC(C)[C@H](CNS(=O)(=O)C1CCOCC1)Cc1ccccc1 here?
A: The value was 9%.

Q: What about the Z score of the same compound?
A: Its Z score is -1.35.

Q: Which “% Inhibition” value does the source give for CN(Cc1nnc(C2CC2)n1C)C(=O)c1ccc(-n2ccnn2)cc1 here?
A: The value was -8%.

Q: And the Z score?
A: Its Z score is 1.09.

Q: For COc1cc(NS(=O)(=O)c2ccc(-n3cnnn3)cc2)nc(OC)n1, which “% Inhibition” value is on record?
A: The value was 33%.

Q: What about the Z score of the same compound?
A: Its Z score is -4.24.

Q: How did the “% Inhibition” value turn out when Cc1sc2nc(CN3CCC(C)CC3)nc(N3CCC(NC(=O)c4ccncc4)CC3)c2c1C was run?
A: Its value is 10%.

Q: And the Z score?
A: Its Z score is -1.9.

Q: Which results are given for CCOc1ccc(S(=O)(=O)N2CCN(Cc3nc(-c4cccc(Cl)c4)oc3C)CC2)cc1?
A: % Inhibition: -8%; Z score: 1.03

Q: For C[C@@H]1CN(C(=O)c2ccc[nH]2)CC[C@@]1(O)C1CCOCC1, which “% Inhibition” value is on record?
A: The value was -16%.

Q: And the Z score?
A: The Z score was 2.79.

Q: For Cc1cc(C(C)(C)C(=O)NC[C@H](O)c2ccnn2C)ccc1Br, which “% Inhibition” value is on record?
A: Its value is -9%.

Q: What about the Z score of the same compound?
A: The Z score was 1.43.

Q: Which “% Inhibition” value does the source give for Cc1cc(F)ccc1-n1c(=O)c2sccc2n(CC(=O)N(C)c2ccccc2)c1=O here?
A: Its value is 0%.

Q: And the Z score?
A: The Z score was 0.04.

Q: For COC(=O)[C@@](c1cc(C)c(O)c(C)c1)(N1CCN(c2ccccc2)CC1)C(F)(F)F, which “% Inhibition” value is on record?
A: The value was -5%.

Q: And the Z score?
A: The Z score was 0.64.

Q: With COC(=O)c1c(Cl)ccc(C(N)=O)c1Cl as the compound, how does the “% Inhibition” value read?
A: Its value is -6%.

Q: What about the Z score of the same compound?
A: Its Z score is 0.87.

Q: With CCS(=O)(=O)N1CC(=O)N(c2ccc(NC(C)=O)cc2)[C@](C)(C(=O)NC2CCCCCC2)C1 as the compound, how does the “% Inhibition” value read?
A: The value was -4%.

Q: And the Z score?
A: The Z score was 0.72.

Q: What does the source list for Cc1cc(N(C)C[C@H]2CCOC2)nc2cc(F)ccc12?
A: % Inhibition: -7%; Z score: 1.37

Q: How did the “% Inhibition” value turn out when CC(C(C)S(C)(=O)=O)N(C)C(=O)c1ccc2c(c1)N(C)CC2 (centres undefined) was run?
A: The value was 0%.

Q: What about the Z score of the same compound?
A: The Z score was 0.07.

Q: Which results are given for CC(C)(C)c1cnc(CNc2nnc([C@@H]3CCCO3)o2)s1?
A: % Inhibition: -6%; Z score: 0.84

Q: How did the “% Inhibition” value turn out when CCCCCNC(=O)C1CCC(Cn2cnnn2)CC1 (centres undefined) was run?
A: The value was -5%.

Q: And the Z score?
A: Its Z score is 0.6.

Q: For C[C@]1(n2cc(CN3CCOCc4ccccc43)cn2)CCS(=O)(=O)C1, which “% Inhibition” value is on record?
A: The value was -2%.

Q: And the Z score?
A: The Z score was 0.32.

Q: O=C(NS(=O)(=O)c1cccnc1)c1ccc(OC2CCC2)cc1Cl was tested. Which “% Inhibition” value did it give?
A: The value was 1%.

Q: And the Z score?
A: The Z score was -0.17.

Q: Cc1ccc(O)c(NC(=O)OC(C)(C)C)c1 was tested. Which “% Inhibition” value did it give?
A: Its value is -8%.

Q: And the Z score?
A: The Z score was 1.26.

Q: Which “% Inhibition” value does the source give for O=C1N(Cc2ccc(F)cc2)CCC[C@@]1(O)CN1CCCCCC1 here?
A: Its value is 11%.

Q: And the Z score?
A: The Z score was -1.44.

Q: How did the “% Inhibition” value turn out when Cc1nc(CN2CCC3(CCC(=O)N(CCc4ccccn4)C3)CC2)n(C)n1 was run?
A: The value was -6%.

Q: What about the Z score of the same compound?
A: Its Z score is 0.95.

Q: For COc1ccc2cc1OCCn1cc(nn1)CO[C@H]1CN(C(=O)CCn3cncn3)C[C@@H]1NC2=O, which “% Inhibition” value is on record?
A: Its value is 6%.

Q: And the Z score?
A: Its Z score is -0.82.

Q: For NS(=O)(=O)c1ccc(CNC(=O)[C@]2(c3ccccc3)CC23CCCC3)cc1, which “% Inhibition” value is on record?
A: Its value is -12%.

Q: And the Z score?
A: Its Z score is 2.06.

Q: Which “% Inhibition” value does the source give for O=C(Cc1n[nH]c(=O)c2ccccc12)NC[C@H]1CCCO1 here?
A: Its value is -5%.

Q: What about the Z score of the same compound?
A: The Z score was 0.45.

Q: How did the “% Inhibition” value turn out when CC1CC(C)CN(C(=O)Cn2ncc3ccc(Cl)cc32)C1 (centres undefined) was run?
A: Its value is -4%.

Q: And the Z score?
A: The Z score was 0.62.

Q: For CC1CCN(c2cc(N3CCNCC3)ncn2)CC1, which “% Inhibition” value is on record?
A: The value was 0%.

Q: What about the Z score of the same compound?
A: Its Z score is -0.04.

Q: What does the source list for CCC(C)C(NC(=O)OCc1ccccc1)C(=O)N1CCC(C(N)=O)CC1 (centres undefined)?
A: % Inhibition: -6%; Z score: 0.53

Q: Which “% Inhibition” value does the source give for CC(=O)Nc1nc(C)c(S(=O)(=O)N2CCOCC2)s1 here?
A: The value was 5%.

Q: What about the Z score of the same compound?
A: Its Z score is -0.51.

Q: How did the “% Inhibition” value turn out when CN(CCCc1ccccc1)S(=O)(=O)N1CCCC1 was run?
A: Its value is 1%.

Q: What about the Z score of the same compound?
A: The Z score was -0.06.

Q: With c1cnc(N2CCC3(CCCN3Cc3ccc(-c4cc[nH]n4)s3)CC2)nc1 as the compound, how does the “% Inhibition” value read?
A: The value was -11%.

Q: What about the Z score of the same compound?
A: Its Z score is 1.74.

Q: With Cc1c(C)n(C2CCCC2)c2ncnc(N3CC[C@H](C(N)=O)C3)c12 as the compound, how does the “% Inhibition” value read?
A: Its value is -2%.

Q: And the Z score?
A: The Z score was 0.34.

Q: With N#Cc1ncn(Cc2coc(-c3c(F)cccc3F)n2)c1C#N as the compound, how does the “% Inhibition” value read?
A: Its value is -14%.

Q: And the Z score?
A: The Z score was 2.31.

Q: How did the “% Inhibition” value turn out when O=C(CN1CCN(CC(=O)N2CCC[C@H](c3nc4ccccc4s3)C2)CC1)NC1CC1 was run?
A: The value was -13%.

Q: And the Z score?
A: Its Z score is 1.61.

Q: CCN1CCN(C2(C(=O)N3CC[C@H](COC)C3)Cc3ccccc3C2)CC1 was tested. Which “% Inhibition” value did it give?
A: Its value is -1%.

Q: What about the Z score of the same compound?
A: The Z score was 0.25.

Q: What does the source list for Cc1ccn2c(C(=O)NC(Cc3ccncc3)[C@H]3C[C@@H](O)C3)nnc2n1 (some centres undefined)?
A: % Inhibition: -17%; Z score: 1.87

Q: With Cc1cccc2nc(C(=O)N[C@H]3C[C@H](c4nnc(CN(C)C)n4C)C3)c(F)n12 as the compound, how does the “% Inhibition” value read?
A: The value was -12%.

Q: And the Z score?
A: The Z score was 2.32.

Q: With CN1CCC(Nc2ncnc3c2cnn3C)C1c1ccc(Cl)cc1 (centres undefined) as the compound, how does the “% Inhibition” value read?
A: Its value is 45%.

Q: And the Z score?
A: Its Z score is -5.36.

Q: CC(C)=CCNC(=O)N1CCC(F)(F)C1 was tested. Which “% Inhibition” value did it give?
A: The value was 1%.

Q: And the Z score?
A: The Z score was -0.14.

Q: COc1ccc(-c2cnnc(-n3nc(C)c4c3NC(=O)C[C@@H]4c3ccc(F)cc3F)n2)cc1 was tested. Which “% Inhibition” value did it give?
A: The value was 14%.

Q: And the Z score?
A: The Z score was -2.68.

Q: How did the “% Inhibition” value turn out when Cc1noc([C@H]2CCN(C(=O)Cn3cccn3)C2)n1 was run?
A: The value was -3%.

Q: And the Z score?
A: Its Z score is 0.45.

Q: Which results are given for CC(C)[C@H](Oc1ccc(Cl)cc1)C(=O)N(C)Cc1c[nH]cn1?
A: % Inhibition: -2%; Z score: 0.34

Q: N#Cc1ccc(CN[C@@H](Cc2ccccc2)C2CC2)c(F)c1 was tested. Which “% Inhibition” value did it give?
A: Its value is -1%.

Q: And the Z score?
A: The Z score was 0.14.

Q: Which results are given for CCC(CC(=O)N1CCC2(C1)NC(=O)NC2=O)c1ccc(C)cc1 (centres undefined)?
A: % Inhibition: -1%; Z score: 0.15

Q: With CN(C)C(=O)N1CCC(c2nc(CN3CCc4ccccc43)no2)CC1 as the compound, how does the “% Inhibition” value read?
A: The value was -6%.

Q: What about the Z score of the same compound?
A: The Z score was 0.81.

Q: Which “% Inhibition” value does the source give for COCC(=O)NC1(CC2CC2)CCN(C(=O)COc2ccccc2)CC1 here?
A: Its value is -6%.

Q: What about the Z score of the same compound?
A: Its Z score is 1.18.

Q: For FC(F)(F)c1sccc1CNCCc1nnc2n1CCC2, which “% Inhibition” value is on record?
A: Its value is -1%.

Q: What about the Z score of the same compound?
A: The Z score was 0.14.

Q: C=C(CNC(=O)N[C@H](CO)CC1OCCO1)c1ccccc1 was tested. Which “% Inhibition” value did it give?
A: The value was 4%.

Q: And the Z score?
A: Its Z score is -0.49.

Q: C/C(=C\c1nsc(Nc2ccc(F)c(Cl)c2)n1)NCc1ccc(C)cc1 was tested. Which “% Inhibition” value did it give?
A: The value was -5%.

Q: And the Z score?
A: The Z score was 0.7.

Q: Which results are given for CCC(C)N(Cc1ccc(C)cc1C)CC(O)COCc1ccccc1 (centres undefined)?
A: % Inhibition: -1%; Z score: 0.09

Q: For O=C(NC[C@H]1Cn2cc(-c3ccccc3)nc2CO1)c1ccc2c(c1)OCO2, which “% Inhibition” value is on record?
A: The value was -1%.

Q: And the Z score?
A: The Z score was 0.14.

Q: For COC(=O)C1NS(=O)(=O)c2ccc(Cl)cc2C1(O)c1ccccc1F (centres undefined), which “% Inhibition” value is on record?
A: The value was 39%.

Q: What about the Z score of the same compound?
A: Its Z score is -5.7.
